{"source": "PubChem BioAssay AID624417", "about": "(National Center for Advancing Translational Sciences (NCATS), 2012)", "note": "In all, about 410,000 compounds went through this assay and about 6,400 (1.6%) were called active. Inconclusive results, whose numbers are uncertain, are shown with a selection of clear calls. Calls follow the shape of the dose curve; as a rule, active = well fitted inhibition curve with a large enough effect; inconclusive = small, poorly fitted or top-dose-only effect; inactive = no such curve, though single readings can be large or run the other way. Potencies of inconclusive entries are left out as doubtful fits. % is scaled to controls: 0 for no effect and ±100 for the full control effect; potency is read from the fitted curve at half-maximal effect; tags tell the direction and shape of the fitted curve.", "data": [{"biological_target": "Glucagon-like peptide 1 receptor (Homo sapiens) (UniProt P43220)", "sequence (P43220 whole entry, looked up)": "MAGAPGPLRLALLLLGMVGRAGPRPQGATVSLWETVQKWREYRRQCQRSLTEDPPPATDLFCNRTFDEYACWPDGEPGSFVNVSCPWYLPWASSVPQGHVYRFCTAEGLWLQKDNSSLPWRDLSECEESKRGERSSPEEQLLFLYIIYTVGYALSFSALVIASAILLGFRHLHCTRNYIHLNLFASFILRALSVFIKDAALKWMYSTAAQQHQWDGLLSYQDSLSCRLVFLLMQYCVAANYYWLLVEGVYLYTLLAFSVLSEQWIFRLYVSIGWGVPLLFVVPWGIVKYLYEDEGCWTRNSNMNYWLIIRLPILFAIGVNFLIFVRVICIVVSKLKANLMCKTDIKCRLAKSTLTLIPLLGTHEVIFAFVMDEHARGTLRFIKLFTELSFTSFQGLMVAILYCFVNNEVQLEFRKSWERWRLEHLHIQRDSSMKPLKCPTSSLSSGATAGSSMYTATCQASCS", "assay": "qHTS of GLP-1 Receptor Inverse Agonists (Inhibition Mode); also: nearly all actives have a fitted effect of over 55% in size", "conditions": "HEK293 GLP-1R CRE-luciferase, luminescence, 24 h, GLP-1R form is constitutively active; activity change, negative = inhibition: at 38.3 µM (top of the series) unless noted", "in_short": "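Luminescence readout: a drop in cAMP-driven luciferase signal flags inverse agonism at a constitutively active GLP-1R stably expressed in HEK293. Compound exposure lasted 24 hr at 37 deg C, 5% CO2.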", "values": [{"compound": "CCOc1ccccc1CNCc1cccn1-c1nnc(N2CCN(c3ccccc3)CC2)s1", "Potency": "inconclusive [inhibitor, single point]"}, {"compound": "O=C(C1CCCN1S(=O)(=O)c1cccc2cccnc12)N1CCn2c1nc1ccccc12", "note": "(configuration not stated)", "Potency": "inactive"}, {"compound": "Nc1cccc(C(=O)OCC(=O)NC2CCCc3ccccc32)c1", "note": "(configuration not stated)", "Potency": "inconclusive [inhibitor, single point]"}, {"compound": "CC1(C(=O)Nc2ccc3c(c2)OCO3)CCN1C(=O)CCc1ccc(Cl)cc1Cl", "note": "(configuration not stated)", "Potency": "inconclusive [inhibitor, single point]"}, {"compound": "CC(C)n1cnc2cc(NCc3nc4ccccc4n3C)ccc21", "Potency": "inconclusive [inhibitor, single point]"}, {"compound": "CCN(CCCNC(=O)c1nn(-c2ccc(OC)cc2)c(=O)c2c1c1ccccc1n2C)c1ccccc1", "Potency": "inactive"}, {"compound": "CCc1ccc(/C=C2\\SC(=S)N(CCC(=O)NCCCN3CCOCC3)C2=O)cc1", "Potency": "inconclusive [inhibitor, full curve]"}, {"compound": "O=C(NCCCCNCCCNC(=O)c1ccccc1)c1ccccc1", "Potency": "inactive"}, {"compound": "Cc1c(Cl)cccc1-n1ncc(C(=O)Nc2ccc(Br)cc2F)c1C1CCNCC1", "Potency": "inconclusive [inhibitor, partial curve, poor fit]"}, {"compound": "COc1cc(OC)cc(-c2c(C#Cc3ccsc3)c3cc(-c4cccc5[nH]cc(C=O)c45)ccc3n2C)c1", "Potency": "inconclusive [inhibitor, partial curve]"}, {"compound": "CCCCNC(=O)c1ccc2c(c1)ncn2-c1cc(OC)ccc1OC", "Potency": "inactive"}, {"compound": "CC(=O)c1c(C)oc2c1cc(NS(=O)(=O)c1ccc(Br)cc1)c1ccccc12", "Potency": "inconclusive [inhibitor, full curve]"}, {"compound": "CC1(C)CC(=O)C2=C(C1)OC1=C(C(=O)CC(C)(C)C1)C2c1cc([N+](=O)[O-])cc([N+](=O)[O-])c1O", "Potency": "inconclusive [inhibitor, partial curve, poor fit]"}, {"compound": "O=C(Nc1ccccc1F)c1ccc2c(Cl)c3c(nc2c1)CCC3", "Potency": "inconclusive [inhibitor, partial curve, poor fit]"}, {"compound": "Cc1cc(NC(=S)N(CCCN2CCOCC2)Cc2ccco2)ccc1Cl", "Potency": "inconclusive [inhibitor, partial curve, poor fit]"}, {"compound": "CCOC(=O)N1CCN(CC(=O)Nc2ccc([N+](=O)[O-])cc2C(=O)Nc2ccccc2F)CC1", "Potency": "inconclusive [inhibitor, partial curve, poor fit]"}, {"compound": "Cc1cc(Oc2ccccc2)nc(SCC(=O)Nc2ccc(Cl)c(Cl)c2)n1", "Potency": "inconclusive [inhibitor, single point]"}, {"compound": "O=C(Nc1cccc2ccccc12)OCc1ccccc1", "Potency": "inconclusive [inhibitor, partial curve, poor fit]"}, {"compound": "O=C(Nc1ccc(Br)cc1Br)C1CC(=O)N(Cc2ccccc2)C1", "note": "(configuration not stated)", "Potency": "inconclusive [inhibitor, single point]"}, {"compound": "C=CCC(Nc1ccccc1)c1cccc(OC)c1OC", "note": "(configuration not stated)", "Potency": "inconclusive [inhibitor, partial curve, poor fit]"}, {"compound": "CCCCn1c(N)c(N(CC(C)C)C(=O)CC(NC(=O)c2ccccc2Cl)c2ccccc2)c(=O)[nH]c1=O", "note": "(configuration not stated)", "Potency": "inconclusive [inhibitor, partial curve]"}, {"compound": "CCC(C)c1ccc(OCC(=O)NNC(=O)C2CCCCC2)cc1", "note": "(configuration not stated)", "Potency": "inconclusive [inhibitor, single point]"}, {"compound": "COc1ccc(N2CCN(CCC3Oc4cc([N+](=O)[O-])ccc4NC3=O)CC2)cc1", "note": "(configuration not stated)", "Potency": "inconclusive [inhibitor, single point]"}, {"compound": "N#Cc1c(-c2ccc(Cl)cc2)c(-c2ccc(Cl)cc2)nn(CCOC(=O)CCC(=O)O)c1=O", "Potency": "inconclusive [inhibitor, partial curve, poor fit]"}, {"compound": "CCCCCOc1ccc(C(=O)CCC(=O)N2CCCC2)cc1", "Potency": "inconclusive [inhibitor, single point]"}, {"compound": "O=C(CN1C(=O)/C(=C\\c2ccco2)SC1=S)Nc1ccc(O)cc1C(=O)O", "Potency": "inactive"}, {"compound": "CN(C)Cc1ccccc1C(O)(c1ccccc1)c1ccccc1", "Potency": "inconclusive [inhibitor, partial curve, poor fit]"}, {"compound": "CCCOc1cc(C)nc(-c2ccccc2O)n1", "Potency": "inconclusive [inhibitor, single point]"}, {"compound": "O=C(Cn1nc(C(F)(F)F)c2c1CCCC2)Nc1ccc(Br)cc1", "Potency": "inconclusive [inhibitor, partial curve]"}, {"compound": "CC(C)(C)NC(=O)NC(=O)CSc1cccc(C(F)(F)F)c1", "Potency": "inconclusive [inhibitor, single point]"}, {"compound": "Nc1ccc(O)c2c(=O)cc(-c3ccccc3Cl)oc12", "Potency": "inactive"}, {"compound": "CCn1cc(CN2CCCC(C(=O)Nc3cccc(-c4cc5ccccc5[nH]4)c3)C2)cn1", "note": "(configuration not stated)", "Potency": "inconclusive [inhibitor, single point]"}, {"compound": "Cc1cc(C)cc(-n2c(C)cc(C(=S)N3CCOCC3)c2C)c1", "Potency": "inconclusive [inhibitor, single point]"}, {"compound": "Cc1ccc(-n2nnnc2CNC(=O)c2cc(C(F)(F)F)cc(C(F)(F)F)c2)cc1C", "Potency": "inactive"}, {"compound": "CN1CCS/C1=C/C=C1\\SC(=S)N(CC(=O)O)C1=O", "Potency": "inconclusive [inhibitor, full curve, poor fit]"}, {"compound": "CC(C)(C)OC(=O)N[C@@H](/C=C/c1ccccc1)C(=O)OC(C)(C)C", "Potency": "inconclusive [inhibitor, partial curve, poor fit]"}, {"compound": "CC1(C(=O)NCc2ccc3c(c2)OCO3)CCN1C(=O)C1(c2ccc(Cl)cc2)CC1", "note": "(configuration not stated)", "Potency": "inconclusive [inhibitor, single point]"}, {"compound": "Cc1ccc(C)c(NC(=S)NCc2ccc3[nH]c4c(c3c2)CCCC4)c1", "Potency": "inconclusive [inhibitor, partial curve, poor fit]"}, {"compound": "CC(C)C[C@@H](CN1CCC[C@@H]1CN1C(=S)NC[C@@H]1Cc1ccc(O)cc1)N1C[C@H](Cc2ccccc2)N(CCc2ccccc2)C1=S", "Potency": "inconclusive [inhibitor, single point]"}, {"compound": "COCc1c(C(=O)N/N=C/c2c[nH]c3ccccc23)nnn1-c1nonc1N", "Potency": "inconclusive [inhibitor, single point]"}, {"compound": "CCOc1cc([N+](=O)[O-])cc(/C=C2/NC(=O)N(Cc3ccccc3F)C2=O)c1O", "Potency": "inconclusive [inhibitor, partial curve, poor fit]"}, {"compound": "CCCOc1ccc(S(=O)(=O)N2CCN(C)CC2)c2ccccc12", "Potency": "inconclusive [inhibitor, single point]"}, {"compound": "Clc1ccc(OCc2noc(-c3ccsc3)n2)c(Cl)c1", "Potency": "inconclusive [inhibitor, single point]"}, {"compound": "FC(F)(F)c1ccccc1Cc1c(-c2ccccc2)nc2ccc(Cl)cn12", "Potency": "inconclusive [inhibitor, single point]"}, {"compound": "COc1ccccc1NC(=O)CN1CCN(c2ccc(Cl)cc2)CC1", "Potency": "inconclusive [inhibitor, full curve, poor fit]"}, {"compound": "Cc1cc(SCC(=O)OC(C)C(=O)N(C)c2ccccc2)nc2ccccc12", "note": "(configuration not stated)", "Potency": "inconclusive [inhibitor, single point]"}, {"compound": "O=C1CC(C(=O)Nc2ccccc2)S/C(=N\\NC(=O)c2ccccc2Cl)N1", "note": "(configuration not stated)", "Potency": "inactive"}, {"compound": "S=C(NCC1CCCO1)NC1CCCC1", "note": "(configuration not stated)", "Potency": "inactive"}, {"compound": "Cc1ccccc1C(=O)Nc1nnc(-c2ccncc2)o1", "activity change, negative = inhibition": "inactive: 10.4% [at 7.66 µM]"}, {"compound": "O=C1C2CCCCN2C(=O)N1CCCCN1CCN(c2ccccc2Oc2ccccc2)CC1", "note": "(configuration not stated)", "Potency": "inconclusive [inhibitor, partial curve, poor fit]"}, {"compound": "Cc1cc(C)cc(NC(=O)c2cc(CN3CCCC3)on2)c1", "Potency": "inactive"}, {"compound": "COCCNC(C(=O)Nc1ccc([N+](=O)[O-])cc1Br)c1ccccc1", "note": "(configuration not stated)", "Potency": "inconclusive [inhibitor, partial curve, poor fit]"}, {"compound": "COc1cccc(NC(=O)CN(C)C(=O)/C=C/c2cn(-c3ccccc3)nc2-c2ccc(C)cc2)c1", "Potency": "active: 2 µM"}, {"compound": "CC1CCCC(NC(=S)Nc2cccc(S(=O)(=O)N(C)C)c2)C1C", "note": "(configuration not stated)", "Potency": "inconclusive [inhibitor, single point]"}, {"compound": "CC(=O)Nc1ccc(/C(N=Nc2ccccc2)=N/N=C(N)N)cc1", "Potency": "inconclusive [inhibitor, single point]"}, {"compound": "O=C(Nc1ccccc1N1CCOCC1)c1ccc2ccccc2n1", "Potency": "inconclusive [inhibitor, single point]"}, {"compound": "Cc1ccccc1-c1cccc([C@@H]2C[C@H]3[C@H](CON3C)CN2Cc2ccccc2)c1", "Potency": "inconclusive [inhibitor, single point]"}, {"compound": "Cc1cccc(N2CCN(C(=O)CNC(=O)C3CCCCC3)CC2)c1C", "Potency": "inconclusive [inhibitor, full curve]"}, {"compound": "COc1ccccc1CNC(=O)c1ccc2nc(C)c(N(C)Cc3ccc(NC(C)=O)cc3)n2c1", "Potency": "inactive"}, {"compound": "CCCCC1CCC(C(=O)N(C)CC(=O)Nc2cccc(F)c2)CC1", "note": "(configuration not stated)", "Potency": "inconclusive [inhibitor, full curve, poor fit]"}, {"compound": "CC(=O)Cc1nsc(NC(=O)c2cn(-c3ccccc3)nc2-c2ccc(Br)cc2)n1", "Potency": "inactive"}, {"compound": "CCOc1cc(/C=N/NC(=O)COc2ccc(Cl)cc2)ccc1OS(=O)(=O)c1ccccc1", "Potency": "inconclusive [inhibitor, full curve, poor fit]"}]}]}
